Experimental findings from the supplement of paper PMC9446081 are described below.

Out of some 39,000 compounds screened, about 220 (0.56%) showed activity. Some of the results follow.
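Note: static incubation at 37 °C against the wild-type strain, values averaged over two biological replicates.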

The experiment concerns Escherichia coli K-12 BW25113. As to the kind of experiment: relative growth (OD600 normalised to plate interquartile mean) (fraction); higher = less growth inhibition, active = 0.2 or less. The conditions noted are these: 50 µM; LB; incubation time: overnight (16-24 h).
Turning to `COCC#Cc1ccc([C@H]2[C@@H](CO)N3C(=O)CN(C(=O)C4CCOCC4)C[C@@H]23)cc1`, the relative growth is inactive: 0.986. `O=C(C[C@@H]1C[C@@H]2c3cc(NS(=O)(=O)c4ccc(F)cc4)ccc3O[C@@H]2[C@H](CO)O1)NCc1ccc(Oc2ccccc2)cc1`: the relative growth was inactive: 1.01. Turning to `O=C(C[C@H]1C[C@@H]2c3cc(NS(=O)(=O)c4ccc(F)cc4)ccc3O[C@@H]2[C@H](CO)O1)NCCN1CCCCC1`, the relative growth was inactive: 0.981.

As to `CC(O)(P(=O)([O-])O)P(=O)([O-])O.[Na+].[Na+]`, the relative growth is inactive: 0.973.

For the compound `COC(=O)[C@@]12OC[C@]34[C@H]([C@@H](O)[C@@H]1O)[C@@]1(C)CC(=O)C(=O)[C@H](C)[C@@H]1C[C@H]3OC(=O)[C@H](OC(=O)/C=C(\C)C(C)C)[C@@H]24`, the relative growth is inactive: 0.974. Take `Cl.N=C(N)NC(=N)N1CCOCC1`: the relative growth is inactive: 0.963. For `CC(C)NC(=O)Nc1ccc2c(c1)C(=O)N([C@@H](C)CO)C[C@@H](C)[C@H](CN(C)S(C)(=O)=O)OCCCC[C@@H](C)O2` the value was inactive: 1.01; for `CC(C)NC(=O)N(C)C[C@H]1OCCCC[C@H](C)Oc2ccc(NS(C)(=O)=O)cc2C(=O)N([C@@H](C)CO)C[C@H]1C`, inactive: 0.972. Take `O=C(O)c1cc2n(n1)CCC2`: the relative growth was inactive: 1.03.

Consider `C[C@@H]1CCCCO[C@H](CN(C)C(=O)CCCN(C)C)[C@@H](C)CN([C@H](C)CO)C(=O)c2cc(NC(=O)Nc3ccc(F)cc3)ccc2O1`, for which the relative growth is inactive: 0.962. Take `O=C(C[C@H]1C=C[C@@H](NC(=O)CN2CCOCC2)[C@@H](CO)O1)NCCc1ccccc1`: the relative growth was inactive: 1.02. For `C=CCOC(=O)[C@H]1[C@@H]2C(=O)O[C@@H](c3ccccc3)[C@@H](c3ccccc3)N2[C@@H](c2ccc(OCCOC(=O)[C@@H]3C[C@@H]4C(=O)N[C@@H](Cc5ccccc5)C(=O)N4[C@@H]3c3ccc(O)cc3)cc2)[C@]12C(=O)Nc1ccc(I)cc12` the value was inactive: 1.11. `C[C@@H]1CN([C@@H](C)CO)C(=O)c2cc(NC(=O)Nc3ccc(C(F)(F)F)cc3)ccc2O[C@@H](C)CCCCO[C@@H]1CN(C)C(=O)Nc1cccc2ccccc12`: the relative growth was inactive: 1.06. For `Cc1noc(C)c1S(=O)(=O)N(C)C[C@@H]1Oc2ccc(NC(=O)NC3CCCCC3)cc2CC(=O)N([C@@H](C)CO)C[C@H]1C` the value was inactive: 0.991; for `C[C@@H]1CN([C@H](C)CO)C(=O)c2cccc(NC(=O)NC3CCCCC3)c2O[C@@H]1CN(C)Cc1ccc(-c2ccccc2)cc1`, inactive: 0.951; for `C[C@H]1CN([C@@H](C)CO)C(=O)c2cc(NC(=O)Cn3cnnn3)ccc2O[C@H]1CN(C)S(C)(=O)=O`, inactive: 1.01. For `CCCN(C)C[C@H]1OCCCC[C@H](C)Oc2ccc(NC(=O)Nc3ccc(C(F)(F)F)cc3)cc2C(=O)N([C@@H](C)CO)C[C@H]1C` the value was inactive: 0.861; for `C[C@@H]1CN([C@H](C)CO)C(=O)c2cc(C#Cc3cccnc3)cnc2O[C@H]1CN(C)Cc1ccc(F)cc1`, inactive: 0.998; for `COc1ccc(CN(C)C[C@@H]2OCCCC[C@H](C)Oc3ccc(NC(=O)Nc4ccc5c(c4)OCO5)cc3C(=O)N([C@@H](C)CO)C[C@H]2C)cc1`, inactive: 0.984. The result for `C[C@H](CO)N1C[C@H](C)[C@@H](CN(C)S(=O)(=O)c2cn(C)cn2)Oc2ccc(NC(=O)NC3CCCCC3)cc2C1=O` reads inactive: 0.996.

As for `COc1ccc(NC(=O)Nc2cccc3c2O[C@H](CN(C)S(=O)(=O)c2cn(C)cn2)[C@@H](C)CN([C@H](C)CO)C3=O)cc1`, the relative growth was inactive: 1.01.

`Cc1noc(C)c1NC(=O)Nc1cccc2c1O[C@@H](CN(C)C(=O)Nc1ccc(C(F)(F)F)cc1)[C@@H](C)CN([C@H](C)CO)C2=O`: the relative growth is inactive: 0.98.

Regarding `O=C(C1=C[C@H](C2CC2)C[C@H](OCc2ccc(CO)cc2)O1)N1CCN(Cc2ccc3c(c2)OCO3)CC1`, the relative growth was inactive: 0.991. The result for `C[C@H]1CN([C@@H](C)CO)C(=O)Cc2cc(NC(=O)Nc3ccc(C(F)(F)F)cc3)ccc2O[C@H]1CN(C)C(=O)Nc1ccccc1` reads inactive: 0.997. For `C[C@H](CO)N1C[C@H](C)[C@@H](CN(C)Cc2ccc(C(=O)Nc3ccccc3N)cc2)Oc2ccc(NC(=O)Cn3cnnn3)cc2C1=O` the value was inactive: 0.983; for `C[C@@H]1CN([C@H](C)CO)C(=O)c2cc(C3=CCCC3)cnc2O[C@H]1CN(C)C(=O)c1ccc2c(c1)OCO2`, inactive: 1.03. With `O=C1NCCN1c1cccnc1`, the relative growth was inactive: 1.01. Turning to `O=C(C[C@@H]1CC[C@H]2[C@@H](COC[C@H](O)CN2S(=O)(=O)c2cccc(F)c2)O1)NCc1ccc(Cl)c(Cl)c1`, the relative growth is inactive: 0.995. The result for `C[C@H]1CCCCO[C@@H](CN(C)S(=O)(=O)c2ccccc2)[C@@H](C)CN([C@@H](C)CO)C(=O)c2cc(NC(=O)C3CCCCC3)ccc2O1` reads inactive: 1.02; that for `C[C@@H]1CN([C@@H](C)CO)C(=O)Cc2cc(NS(=O)(=O)c3ccccc3)ccc2O[C@H]1CN(C)S(=O)(=O)c1cccs1`, inactive: 0.993; that for `COc1ccc2c3c(n(c2c1)C)[C@H](CO)N(C[C@]13CCN(CC1)Cc1ccncc1)C(=O)CN1CCOCC1`, inactive: 0.995. For `NCc1nncn1-c1ccc(F)cc1` the value was inactive: 1.

For `COc1ccc(NC(=O)Nc2ccc3c(c2)C(=O)N([C@H](C)CO)C[C@@H](C)[C@@H](CN(C)C(=O)C2CCCCC2)OCCCC[C@@H](C)O3)cc1`, the relative growth was inactive: 0.978. On to `NC1CCC(N2CCC3(CC2)CC(=O)N(Cc2cc(F)cc(F)c2)C3)CC1` (centres undefined), for which the relative growth is inactive: 1.01. Regarding `C[C@H]1CCCCO[C@H](CN(C)C(=O)NC2CCCCC2)[C@@H](C)CN([C@@H](C)CO)C(=O)c2cc(NC(=O)c3ccncc3)ccc2O1`, the relative growth was inactive: 0.971. Consider `S=C(c1cccs1)N1CCCC1`, for which the relative growth is inactive: 0.987.

In the case of `CC(/C=C/C(=O)NO)=C\c1ccccc1OCc1cn(CCNC(=O)[C@@H](NS(=O)(=O)c2ccc(C)cc2)C(C)C)nn1`, the relative growth is inactive: 0.996.

For the compound `O=C1CCC(N2C(=O)c3ccccc3C2=O)C(=O)N1` (centres undefined), the relative growth was inactive: 1.09. As to `Cc1ccc(S(=O)(=O)N2CCOCC2)cc1NC(=O)CN1C(=O)CN(C)C1=O`, the relative growth was inactive: 1.02.
